# Values joined by “and” are separate entries in the source; they are usually repeats but may differ in a detail not shown here. Identical values can stand only once. The shares of active, inactive and inconclusive entries below differ from those in the screen. Where the call is inconclusive, the potency comes from a doubtful curve fit. Active and inactive are the calls of the source. Unless noted, calls come from the whole dose curve; as a rule, active = well fitted curve in the direction sought with a large enough effect in the repeat runs; inconclusive = weak or mixed curves; inactive = no such curve, though single readings can be large; an effect the other way counts as inactive or inconclusive.
# How the values were obtained:
# [1] = qHTS assay to identify small molecule antagonists of the retinoid acid receptor (RAR) signaling pathway - cell viability counter screen (AID 1159551); conditions: C3RL4 cells viability, ATP luminescence (CellTiter-Glo), 6 h; series mostly up to 92.4 µM; note: nearly all actives have a fitted effect of over 35% in size
# Procedure, shortened: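 Viability of C3RL4 cells is quantified from ATP by luminescence after 6 h treatment at 37 C with compounds and 1 uM retinol.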
# [2] = qHTS assay to identify small molecule antagonists of the retinoic acid receptor (RAR) signaling pathway (AID 1159552; note: nearly all actives have a fitted effect of over 50% in size); conditions: C3RL4 RARE luciferase reporter, retinol-stimulated, 6 h; series mostly up to 92.4 µM
# Procedure, shortened: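 Test chemicals and DMSO controls were pin-transferred onto C3RL4 cells a day after seeding; retinol (1 uM final) followed at once. Luminescent reporter output was quantified after 6 hr of co-incubation and 30 min with detection reagent.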
# [3] = qHTS assay to identify small molecule agonists of the retinoic acid receptor (RAR) signaling pathway (AID 1159553); conditions: C3RL4 RARE luciferase reporter, agonist, 6 h; activation: at 73.3 µM (top of the series) unless noted; for activation: % is set by controls: 0 for no effect and ±100 for the full control effect
# Procedure, shortened: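 Compounds dissolved in DMSO were pinned onto C3RL4 cells seeded the previous day, and plates were held 6 hr at 37 C. RARE-driven luciferase output was then read by luminescence.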
# [4] = qHTS assay to identify small molecule antagonists of the estrogen related receptor (ERR) signaling pathway from Tox21 library - cell viability counter screen (AID 1224834); conditions: ERR reporter cells viability, CellTiter-Fluor, 17.5 h; series mostly up to 92.4 µM; note: nearly all actives have a fitted effect of over 30% in size
# Procedure, shortened: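 In this quantitative HTS format, ERR cells receive compounds in DMSO and are incubated for 17.5 h at 37 C. Live-cell protease activity is then detected with CellTiter-Fluor.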
# [5] = target: Luciferin 4-monooxygenase (Photinus pyralis) (UniProt P08659); assay: qHTS assay to identify small molecule inhibitors of firefly luciferase (AID 1224835); note: nearly all actives have a fitted effect of over 25% in size; conditions: purified P. pyralis luciferase, luminescence inhibition; series mostly up to 115 µM
# Procedure, shortened: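 Biochemical qHTS: compounds run as interplate titrations against purified firefly enzyme, with D-luciferin and ATP each at its KM concentration. Light output recorded by CCD imaging.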
# [6] = qHTS assay to identify small molecule antagonists of the constitutive androstane receptor (CAR) signaling pathway - cell viability counter screen (AID 1224837); conditions: HepG2-CYP2B6-hCAR viability, CellTiter-Fluor, 23 h, co-treated with 50 nM CITCO; series mostly up to 92.4 µM; note: nearly all actives have a fitted effect of over 45% in size
# Procedure, shortened: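 In quantitative HTS format, compounds at 15 concentrations were applied to HepG2 cells double-transfected with hCAR and CYP2B6-2.2kb under 50 nM CITCO stimulation; live-cell protease activity was read after 23 hr via CellTiter-Fluor.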
# [7] = qHTS assay to identify small molecule antagonists of the estrogen related receptor signaling pathway with the pleiotropic PPARgamma coactivator (PGC) from Tox21 10K library (AID 1224841; call rule not given here; note: actives are mostly falling curves and most rising ones were filed inactive; nearly all actives have a fitted effect of over 50% in size); conditions: PGC/ERR reporter cell line, ONE-Glo luciferase, 18 h; series mostly up to 92.4 µM
# Procedure, shortened: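 In the PGC/ERR line, DMSO solutions of test chemicals are pin-delivered to 2,000 cells/well six hours after dispensing. Following eighteen hours' incubation, One-Glo reagent is added and luminescence recorded.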
# [8] = target: Thyrotropin receptor (Homo sapiens) (UniProt P16473); assay: qHTS assay to identify small molecule agonists of the thyroid stimulating hormone receptor (TSHR) signaling pathway (AID 1224843; calls by dose curve; note: nearly all actives have a fitted effect of over 45% in size; for activation: % is set by controls: 0 for no effect and ±100 for the full control effect); conditions: TSHR-HEK293 cells, cAMP HTRF, agonist mode, 30 min; activation: at 92.4 µM (top of the series) unless noted
# Procedure, shortened: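 Agonist-mode screen: TSHR HEK293 cells received test chemicals for half an hour at room temperature, then HTRF cAMP detection reagents for one hour prior to fluorescence measurement. Each chemical ran as a 15-concentration series, triplicated.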
# [9] = qHTS assay to identify small molecule agonists of the constitutive androstane receptor (CAR) signaling pathway - cell viability counter screen (AID 1224836); conditions: HepG2-CYP2B6-hCAR viability, CellTiter-Fluor, 23 h, PK11195 added to every well; series mostly up to 92.4 µM; note: nearly all actives have a fitted effect of over 45% in size
# Procedure, shortened: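 23 h treatment, 37 C, 5% CO2. Cell line: HepG2 stably expressing hCAR with a CYP2B6-2.2kb construct. Co-treatment: PK11195, 0.75 uM final. Read-out: CellTiter-Fluor fluorescence intensity.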
# [10] = qHTS assay to identify small molecule antagonists of the estrogen related receptor signaling pathway with the pleiotropic PPARgamma coactivator (PGC) from Tox21 10K library - cell viability counter screen (AID 1224840; active = well fitted cell-killing curve with a large enough effect in the repeat runs, not every such curve was filed as active; inconclusive = weak or mixed curves, or effect the other way; inactive = no such curve, though single readings can be large or run the other way; note: nearly all actives have a fitted effect of over 40% in size); conditions: PGC/ERR reporter cells viability, CellTiter-Fluor, 17.5 h; series mostly up to 92.4 µM
# Procedure, shortened: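 Viability counter screen, PGC/ERR cells: 17.5 h compound exposure at 37 C, CellTiter-Fluor fluorescence endpoint.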
# [11] = qHTS assay to identify small molecule antagonists of the estrogen related receptor signaling pathway with the pleiotropic PPARgamma coactivator (PGC) cell viability counter screen (AID 1224822); conditions: ERR/PGC reporter cell line viability counter screen; series mostly up to 46.1 µM
# Procedure, shortened: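 Viable cell signal (CellTiter-Fluor, 30 min, 37 C/5% CO2) was measured in PGC/ERR cells after a 17.5 h compound incubation.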
# [12] = qHTS assay to identify small molecule agonists of the hypoxia (HIF-1) signaling pathway - cell viability counter screen (AID 1224844; calls by dose curve; note: nearly all actives have a fitted effect of over 50% in size); conditions: HRE-bla ME-180 viability, CellTiter-Glo luminescence, 17 h; series mostly up to 76.8 µM
# Procedure, shortened: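 Same wells as the HIF-1 reporter screen; ME-180 cells carrying HRE-bla, 17 hr treatment at 37C; CellTiter-Glo luminescence read after 30 min at room temperature.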
# [13] = target: Nuclear receptor subfamily 1 group I member 3 (Homo sapiens) (UniProt Q14994); assay: qHTS assay to identify small molecule antagonists of the constitutive androstane receptor (CAR) signaling pathway (AID 1224838); conditions: HepG2-CYP2B6-hCAR luciferase, CITCO-stimulated, 24 h; series mostly up to 92.4 µM; note: nearly all actives have a fitted effect of over 40% in size
# Procedure, shortened: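 CITCO-stimulated (50 nM final) HepG2 cells stably transfected with hCAR and CYP2B6-2.2kb luciferase were exposed to compounds at 15 concentrations for 24 h at 37 C/5% CO2. A luciferase reagent was added and luminescence recorded after 30 min.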
# [14] = qHTS assay to identify small molecule agonists of the estrogen related receptor signaling pathway with the pleiotropic PPARgamma coactivator (PGC) from Tox21 10K library (AID 1224842); conditions: PGC/ERR reporter cell line, luciferase ONE-Glo, 18 h; series mostly up to 42.5 µM; note: nearly all actives have a fitted effect of over 15% in size
# Procedure, shortened: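 PGC/ERR reporter cell line, 2,000 cells per well, incubated 6 h at 37 C before 23 nL compound in DMSO was added. After 18 h at 37 C, One-Glo luminescence read following 30 min at room temperature.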
# [15] = target: Nuclear receptor subfamily 1 group I member 3 (Homo sapiens) (UniProt Q14994); assay: qHTS assay to identify small molecule agonists of the constitutive androstane receptor (CAR) signaling pathway (AID 1224839); conditions: HepG2 hCAR CYP2B6-luciferase, agonist mode, 24 h; series mostly up to 92.4 µM; note: nearly all actives have a fitted effect of over 15% in size
# Procedure, shortened: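 Compounds tested at 15 concentrations on HepG2 cells stably harbouring hCAR and CYP2B6-2.2kb reporter constructs, co-treated with PK11195 (0.75 uM final), 24 h at 37 C; luminescent reporter signal quantified.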
# Potency is the fitted concentration of half-maximal effect; tags give direction and shape of the fitted curve or compound fluorescence and quenching.
# UniProt P16473, sequence (P16473 whole entry, looked up): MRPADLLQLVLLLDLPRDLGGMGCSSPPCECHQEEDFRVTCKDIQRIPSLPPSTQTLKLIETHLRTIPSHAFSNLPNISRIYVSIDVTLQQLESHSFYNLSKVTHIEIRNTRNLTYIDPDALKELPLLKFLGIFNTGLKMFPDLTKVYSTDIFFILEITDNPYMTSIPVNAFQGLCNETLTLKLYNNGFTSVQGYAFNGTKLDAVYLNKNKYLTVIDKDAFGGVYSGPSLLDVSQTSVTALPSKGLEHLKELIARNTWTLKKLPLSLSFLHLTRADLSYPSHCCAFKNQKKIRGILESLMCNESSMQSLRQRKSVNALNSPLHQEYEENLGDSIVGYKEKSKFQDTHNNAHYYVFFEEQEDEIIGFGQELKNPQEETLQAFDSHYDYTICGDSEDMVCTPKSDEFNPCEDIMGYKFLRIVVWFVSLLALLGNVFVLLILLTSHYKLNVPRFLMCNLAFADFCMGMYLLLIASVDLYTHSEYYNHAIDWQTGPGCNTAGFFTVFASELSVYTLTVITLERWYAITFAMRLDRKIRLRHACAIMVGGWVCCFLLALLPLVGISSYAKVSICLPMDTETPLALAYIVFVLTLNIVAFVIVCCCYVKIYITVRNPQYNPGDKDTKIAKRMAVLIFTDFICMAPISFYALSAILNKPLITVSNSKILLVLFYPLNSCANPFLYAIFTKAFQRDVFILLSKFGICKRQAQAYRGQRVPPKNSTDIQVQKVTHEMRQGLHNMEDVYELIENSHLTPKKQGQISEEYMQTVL
# UniProt Q14994, sequence (Q14994 whole entry, looked up): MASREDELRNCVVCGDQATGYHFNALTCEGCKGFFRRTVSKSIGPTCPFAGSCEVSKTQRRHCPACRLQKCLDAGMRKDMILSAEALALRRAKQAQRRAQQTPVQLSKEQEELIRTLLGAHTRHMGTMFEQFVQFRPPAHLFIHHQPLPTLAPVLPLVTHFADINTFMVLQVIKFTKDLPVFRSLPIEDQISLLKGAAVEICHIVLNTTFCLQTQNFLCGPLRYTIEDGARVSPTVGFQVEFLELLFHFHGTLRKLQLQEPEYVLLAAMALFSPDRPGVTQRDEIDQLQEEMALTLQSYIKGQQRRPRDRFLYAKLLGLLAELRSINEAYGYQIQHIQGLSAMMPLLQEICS
# UniProt P08659, sequence (P08659 whole entry, looked up): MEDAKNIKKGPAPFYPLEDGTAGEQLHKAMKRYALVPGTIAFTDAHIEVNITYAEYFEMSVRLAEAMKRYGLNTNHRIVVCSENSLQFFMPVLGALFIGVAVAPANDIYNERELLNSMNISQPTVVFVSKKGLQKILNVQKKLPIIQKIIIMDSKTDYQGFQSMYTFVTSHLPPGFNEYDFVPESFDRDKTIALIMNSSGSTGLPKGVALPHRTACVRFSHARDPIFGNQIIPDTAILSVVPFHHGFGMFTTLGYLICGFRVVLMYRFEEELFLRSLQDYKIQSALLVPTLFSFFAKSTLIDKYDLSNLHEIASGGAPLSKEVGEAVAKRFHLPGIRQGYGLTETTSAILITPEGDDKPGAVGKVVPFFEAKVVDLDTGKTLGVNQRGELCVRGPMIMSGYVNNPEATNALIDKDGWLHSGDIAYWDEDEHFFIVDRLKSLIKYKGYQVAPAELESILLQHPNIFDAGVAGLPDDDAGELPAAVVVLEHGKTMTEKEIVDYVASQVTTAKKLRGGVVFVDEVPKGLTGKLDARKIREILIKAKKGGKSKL
smiles,measurement,setting,value
O=C(O)c1cc(O)c2ccccc2c1O,Potency,[1],active: 61.1 µM
same,Potency,[2],active: 68.6 µM
same,activation,[3],inconclusive: 5.32% [phenotype inactive]
same,Potency,[4],active: 27.3 µM
same,Potency,[5],active: 31.7 µM
same,Potency,[6],active: 24.3 µM
same,Potency,[7],"inconclusive: 48.6 µM [falling, partial curve, poor fit]"
same,Potency,[8],"inconclusive: 0.969 µM [activator, partial curve]"
CCCCCCNC(=O)n1cc(F)c(=O)[nH]c1=O,Potency,[1],"inconclusive: 15 µM [rising, partial curve, poor fit]"
CN1C(=O)N(c2ccccc2Br)Cc2cnc(Nc3ccc4c(c3)OCC(CO)O4)nc21 (centres undefined),Potency,[1],"inconclusive: 54.5 µM [cytotoxic, partial curve]"
same,Potency,[2],"inconclusive: 15.4 µM [inhibitor, partial curve, poor fit]"
same,Potency,[4],active: 27.3 µM
same,Potency,[9],active: 30.6 µM
same,Potency,[6],"inconclusive: 27.3 µM [cytotoxic, partial curve]"
same,Potency,[10],active: 21.7 µM
same,Potency,[7],"inconclusive: 48.6 µM [falling, partial curve, poor fit]"
same,activation,[8],inconclusive: 19.2%
CCCCCCCCCc1ccc(OCCOCCO)cc1,Potency,[1],inconclusive: 25.6 µM [cytotoxic]
same,Potency,[2],"inconclusive: 22.8 µM [inhibitor, single point]"
same,Potency,[3],"inconclusive: 28.7 µM [activator, partial curve, poor fit]"
same,activation,[8],inconclusive: -29.4% [at 42.5 µM]
CC(=O)[C@]1(O)Cc2c(O)c3c(c(O)c2[C@@H](O[C@H]2C[C@H](N)[C@H](O)[C@H](C)O2)C1)C(=O)c1ccccc1C3=O,Potency,[1],"inconclusive: 1.19 µM [rising, full curve, poor fit]"
same,Potency,[3],"inconclusive: 1.33 µM [inhibitor, full curve]"
same,Potency,[11],inconclusive: 4.73 µM [cytotoxic]
same,Potency,[4],active: 1.06 µM
same,Potency,[5],"inconclusive: 38.9 µM [inhibitor, single point]"
same,Potency,[8],"inconclusive: 21.1 µM [activator, partial curve]"
same,Potency,[12],"inconclusive: 1.07 µM [cytotoxic, full curve]"
Cc1ccc([N+](=O)[O-])c(N)c1,Potency,[1],inactive
same,Potency,[2],"inconclusive: 75.1 µM [inhibitor, single point]"
same,Potency,[4],inconclusive: 59.6 µM [cytotoxic]
same,Potency,[5],"inconclusive: 55 µM [inhibitor, partial curve]"
same,Potency,[8],inactive
CNCCC(Oc1ccc(C(F)(F)F)cc1)c1ccccc1 (centres undefined),Potency,[1],"inconclusive: 67.7 µM [cytotoxic, single point]"
same,Potency,[2],active: 53.8 µM
same,Potency,[3],"inconclusive: 67.7 µM [inhibitor, partial curve] and inconclusive: 21.1 µM [inhibitor, partial curve]"
same,Potency,[11],"inconclusive: 21.1 µM [cytotoxic, single point]"
same,Potency,[4],"inconclusive: 33.5 µM [cytotoxic, single point]"
same,Potency,[13],"inconclusive: 67.7 µM [inhibitor, single point] and active: 29.8 µM"
Nc1ccc(N)c(Cl)c1,Potency,[1],"inconclusive: 68.5 µM [cytotoxic, partial curve, poor fit]"
same,Potency,[2],"inconclusive: 43.3 µM [inhibitor, partial curve]"
same,Potency,[3],inactive
same,Potency,[10],"inconclusive: 61 µM [cytotoxic, partial curve] and inconclusive: 27.3 µM [cytotoxic, full curve, poor fit]"
same,Potency,[8],"inconclusive: 68.5 µM [falling, partial curve, poor fit]"
same,activation,[8],inconclusive: -8.81%
OCCN1CCN(CCCN2c3ccccc3Sc3ccc(Cl)cc32)CC1,Potency,[1],"inconclusive: 33.5 µM [cytotoxic, single point]"
same,Potency,[2],active: 29.8 µM
same,Potency,[9],active: 29.8 µM
same,Potency,[13],"inconclusive: 33.5 µM [inhibitor, single point]"
same,Potency,[10],"inconclusive: 33.5 µM [cytotoxic, single point]"
same,Potency,[14],"inconclusive: 33.5 µM [activator, single point]"
O=C(Nc1ccc(Cl)c(Cl)c1)c1cc(Cl)cc(Cl)c1O,Potency,[1],"inconclusive: 27.3 µM [cytotoxic, partial curve]"
same,Potency,[2],inactive
same,activation,[3],inconclusive: 5.52% [phenotype inactive]
same,Potency,[9],"inconclusive: 8.63 µM [cytotoxic, full curve]"
same,Potency,[6],active: 7.7 µM
same,Potency,[15],"inconclusive: 0.969 µM [activator, partial curve]"
same,Potency,[10],active: 4.33 µM
same,Potency,[7],"inconclusive: 1.09 µM [falling, full curve]"

# — PubChem BioAssay (Tox21)
